According to publication PMC11345399 (The Journal of Biological Chemistry, 2024):

What was measured:
PIV-5 RdRp = PIV-5 RdRp (Parainfluenza virus 5, UniProt Q88434)
MERS-CoV RdRp = MERS-CoV RdRp (Middle East respiratory syndrome-related coronavirus, UniProt K9N7C7)
HMPV RdRp = HMPV RdRp (Human metapneumovirus, UniProt Q6WB93)
HPIV-3 RdRp = HPIV-3 RdRp (Human parainfluenza 3 virus, UniProt P12577)
RSV RdRp = RSV RdRp (Human respiratory syncytial virus A, UniProt P28887)

Chain of UniProt Q6WB93 (Q6WB93 whole entry): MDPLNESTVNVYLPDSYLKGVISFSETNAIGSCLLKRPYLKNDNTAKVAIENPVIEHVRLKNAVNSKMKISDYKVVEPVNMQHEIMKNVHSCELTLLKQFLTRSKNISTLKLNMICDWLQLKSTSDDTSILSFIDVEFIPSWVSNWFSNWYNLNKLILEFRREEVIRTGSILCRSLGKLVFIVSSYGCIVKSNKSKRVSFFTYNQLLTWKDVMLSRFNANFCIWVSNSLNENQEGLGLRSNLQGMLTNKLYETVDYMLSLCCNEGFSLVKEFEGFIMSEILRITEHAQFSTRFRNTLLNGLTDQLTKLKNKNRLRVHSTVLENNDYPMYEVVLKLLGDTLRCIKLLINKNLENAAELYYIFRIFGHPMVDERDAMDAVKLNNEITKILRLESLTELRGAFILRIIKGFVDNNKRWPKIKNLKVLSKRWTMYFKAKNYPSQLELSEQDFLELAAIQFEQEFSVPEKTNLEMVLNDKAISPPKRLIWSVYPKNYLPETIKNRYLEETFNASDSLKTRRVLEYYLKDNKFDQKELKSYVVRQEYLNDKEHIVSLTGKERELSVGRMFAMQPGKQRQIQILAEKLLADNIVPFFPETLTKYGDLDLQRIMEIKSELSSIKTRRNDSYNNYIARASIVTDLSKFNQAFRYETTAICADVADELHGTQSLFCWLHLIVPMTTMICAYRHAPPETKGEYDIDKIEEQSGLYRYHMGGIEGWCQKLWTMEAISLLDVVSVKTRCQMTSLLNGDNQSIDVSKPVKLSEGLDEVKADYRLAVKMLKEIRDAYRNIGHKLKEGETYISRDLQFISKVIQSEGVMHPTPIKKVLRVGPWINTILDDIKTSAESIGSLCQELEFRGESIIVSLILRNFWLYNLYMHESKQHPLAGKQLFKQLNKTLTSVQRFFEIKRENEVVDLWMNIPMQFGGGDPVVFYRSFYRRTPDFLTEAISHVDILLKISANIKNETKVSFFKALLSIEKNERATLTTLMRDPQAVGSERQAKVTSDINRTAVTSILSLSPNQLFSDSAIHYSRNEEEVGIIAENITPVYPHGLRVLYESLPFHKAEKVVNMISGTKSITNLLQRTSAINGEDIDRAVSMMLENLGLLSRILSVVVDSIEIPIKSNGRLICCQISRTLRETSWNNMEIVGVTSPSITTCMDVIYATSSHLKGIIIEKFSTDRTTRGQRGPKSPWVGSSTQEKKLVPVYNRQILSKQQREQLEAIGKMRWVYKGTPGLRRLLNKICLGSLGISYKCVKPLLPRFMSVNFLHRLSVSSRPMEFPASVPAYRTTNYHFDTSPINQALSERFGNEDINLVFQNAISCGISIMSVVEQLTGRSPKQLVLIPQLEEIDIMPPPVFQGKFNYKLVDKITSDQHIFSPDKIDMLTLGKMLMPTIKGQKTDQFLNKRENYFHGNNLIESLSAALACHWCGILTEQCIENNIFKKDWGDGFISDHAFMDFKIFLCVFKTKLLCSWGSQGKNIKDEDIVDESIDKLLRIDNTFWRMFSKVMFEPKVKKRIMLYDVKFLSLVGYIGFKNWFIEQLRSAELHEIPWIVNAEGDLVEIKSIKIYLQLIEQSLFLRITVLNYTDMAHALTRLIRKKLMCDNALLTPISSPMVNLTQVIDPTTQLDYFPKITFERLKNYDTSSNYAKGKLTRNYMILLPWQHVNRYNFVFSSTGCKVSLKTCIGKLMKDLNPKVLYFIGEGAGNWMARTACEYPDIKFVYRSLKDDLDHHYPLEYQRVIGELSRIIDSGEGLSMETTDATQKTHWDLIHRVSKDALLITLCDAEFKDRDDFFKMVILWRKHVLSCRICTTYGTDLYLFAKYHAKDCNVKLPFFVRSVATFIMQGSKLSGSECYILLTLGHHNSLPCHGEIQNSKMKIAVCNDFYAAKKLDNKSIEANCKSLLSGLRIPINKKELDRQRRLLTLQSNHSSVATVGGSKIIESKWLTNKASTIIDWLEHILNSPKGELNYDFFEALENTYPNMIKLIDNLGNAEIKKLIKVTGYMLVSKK
Chain of UniProt Q6WB93 (Q8B9Q8 whole entry, further chain): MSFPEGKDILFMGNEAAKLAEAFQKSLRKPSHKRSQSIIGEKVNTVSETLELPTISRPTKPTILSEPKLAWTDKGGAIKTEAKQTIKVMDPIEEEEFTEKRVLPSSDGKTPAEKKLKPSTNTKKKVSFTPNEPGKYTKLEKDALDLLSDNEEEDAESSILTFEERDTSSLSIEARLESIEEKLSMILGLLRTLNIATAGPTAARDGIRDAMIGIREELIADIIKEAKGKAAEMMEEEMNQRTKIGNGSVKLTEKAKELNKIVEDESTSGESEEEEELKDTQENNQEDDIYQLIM
Chain of UniProt Q88434 (Q88434 whole entry): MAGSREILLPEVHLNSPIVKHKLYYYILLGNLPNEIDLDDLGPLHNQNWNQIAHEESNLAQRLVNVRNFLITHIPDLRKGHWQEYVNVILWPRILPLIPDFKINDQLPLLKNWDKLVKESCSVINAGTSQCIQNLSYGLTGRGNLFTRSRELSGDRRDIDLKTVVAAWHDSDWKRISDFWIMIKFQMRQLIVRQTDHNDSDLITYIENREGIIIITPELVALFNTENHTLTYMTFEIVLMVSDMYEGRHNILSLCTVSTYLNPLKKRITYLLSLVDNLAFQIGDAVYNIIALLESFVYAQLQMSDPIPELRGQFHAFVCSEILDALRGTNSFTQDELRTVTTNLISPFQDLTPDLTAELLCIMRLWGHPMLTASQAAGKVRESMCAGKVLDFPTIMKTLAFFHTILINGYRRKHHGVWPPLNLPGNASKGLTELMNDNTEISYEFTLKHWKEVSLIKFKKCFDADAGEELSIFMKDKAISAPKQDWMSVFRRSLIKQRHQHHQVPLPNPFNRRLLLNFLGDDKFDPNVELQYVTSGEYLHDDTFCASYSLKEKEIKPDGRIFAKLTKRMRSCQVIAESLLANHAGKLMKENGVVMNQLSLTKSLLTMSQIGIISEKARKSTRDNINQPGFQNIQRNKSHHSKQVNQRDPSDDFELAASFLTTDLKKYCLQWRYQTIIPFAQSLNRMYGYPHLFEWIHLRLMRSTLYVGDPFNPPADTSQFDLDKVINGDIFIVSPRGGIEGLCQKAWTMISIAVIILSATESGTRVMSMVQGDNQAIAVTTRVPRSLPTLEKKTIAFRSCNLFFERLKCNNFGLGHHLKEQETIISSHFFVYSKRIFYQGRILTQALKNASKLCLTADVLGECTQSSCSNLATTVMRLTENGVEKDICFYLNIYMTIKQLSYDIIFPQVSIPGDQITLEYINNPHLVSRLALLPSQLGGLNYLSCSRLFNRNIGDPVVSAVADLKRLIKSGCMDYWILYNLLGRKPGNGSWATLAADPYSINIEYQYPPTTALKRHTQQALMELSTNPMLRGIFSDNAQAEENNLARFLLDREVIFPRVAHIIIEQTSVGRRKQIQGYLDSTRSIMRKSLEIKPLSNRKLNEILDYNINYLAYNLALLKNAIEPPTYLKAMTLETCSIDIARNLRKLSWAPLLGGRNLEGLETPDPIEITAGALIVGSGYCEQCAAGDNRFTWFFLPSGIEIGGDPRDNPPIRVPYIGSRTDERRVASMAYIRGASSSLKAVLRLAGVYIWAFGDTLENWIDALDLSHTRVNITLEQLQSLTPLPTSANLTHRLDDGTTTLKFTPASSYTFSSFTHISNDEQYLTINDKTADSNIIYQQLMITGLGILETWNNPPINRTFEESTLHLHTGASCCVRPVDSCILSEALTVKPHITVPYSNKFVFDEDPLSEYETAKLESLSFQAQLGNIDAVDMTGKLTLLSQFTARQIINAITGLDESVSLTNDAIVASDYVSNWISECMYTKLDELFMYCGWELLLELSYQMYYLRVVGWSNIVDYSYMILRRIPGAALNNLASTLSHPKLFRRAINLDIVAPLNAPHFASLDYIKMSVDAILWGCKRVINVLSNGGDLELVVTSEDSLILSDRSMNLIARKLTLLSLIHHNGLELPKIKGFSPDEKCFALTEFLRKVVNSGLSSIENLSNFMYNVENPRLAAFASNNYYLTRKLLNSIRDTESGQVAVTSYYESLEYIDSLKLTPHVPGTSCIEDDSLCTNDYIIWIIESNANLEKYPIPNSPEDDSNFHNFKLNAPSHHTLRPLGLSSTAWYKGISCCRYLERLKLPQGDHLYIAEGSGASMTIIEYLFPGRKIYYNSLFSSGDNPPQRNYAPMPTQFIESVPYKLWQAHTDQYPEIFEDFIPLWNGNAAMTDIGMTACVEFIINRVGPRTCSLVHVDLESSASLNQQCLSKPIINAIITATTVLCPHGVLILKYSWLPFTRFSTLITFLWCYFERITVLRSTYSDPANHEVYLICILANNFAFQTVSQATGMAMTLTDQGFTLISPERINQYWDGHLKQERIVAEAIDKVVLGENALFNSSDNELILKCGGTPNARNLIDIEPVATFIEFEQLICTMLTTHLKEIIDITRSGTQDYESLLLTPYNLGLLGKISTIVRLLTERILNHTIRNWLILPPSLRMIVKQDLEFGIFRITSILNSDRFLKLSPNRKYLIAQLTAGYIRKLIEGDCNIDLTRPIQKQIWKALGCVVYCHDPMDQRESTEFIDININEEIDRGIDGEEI
Chain of UniProt Q88434 (P11208 whole entry, further chain): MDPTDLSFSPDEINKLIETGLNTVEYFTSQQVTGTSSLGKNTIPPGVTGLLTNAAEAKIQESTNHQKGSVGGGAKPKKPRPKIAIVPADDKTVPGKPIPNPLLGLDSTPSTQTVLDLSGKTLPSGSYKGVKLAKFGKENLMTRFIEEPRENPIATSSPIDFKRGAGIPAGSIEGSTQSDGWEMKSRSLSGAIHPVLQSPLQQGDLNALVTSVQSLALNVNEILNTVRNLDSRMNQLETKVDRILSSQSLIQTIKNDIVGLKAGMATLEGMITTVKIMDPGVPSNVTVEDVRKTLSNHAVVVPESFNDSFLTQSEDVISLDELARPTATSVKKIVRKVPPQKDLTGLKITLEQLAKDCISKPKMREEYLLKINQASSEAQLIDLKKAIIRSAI

With `N#C[C@@]1(c2ccc3c(N)ncnn23)O[C@H](COP(=O)(O)OP(=O)(O)OP(=O)(O)O)[C@@H](O)[C@H]1O` [GS-443902] the “Inhibition (fold) of subsequent nucleotide incorporation, ratio of Vmax/Km vs AMP-terminated primer” value (PIV-5 RdRp) was 0.40 fold, the “Inhibition (fold) of subsequent nucleotide incorporation, ratio of Vmax/Km vs AMP-terminated primer” value (MERS-CoV RdRp) was 0.59 fold and the “Inhibition (fold) of subsequent nucleotide incorporation, ratio of Vmax/Km vs AMP-terminated primer” value (HMPV RdRp) was 4.77 fold. The “Inhibition (fold) of subsequent nucleotide incorporation, ratio of Vmax/Km vs AMP-terminated primer” value (HPIV-3 RdRp) was 1.01 fold.
`N#C[C@]1(COP(=O)(O)OP(=O)(O)OP(=O)(O)O)O[C@@H](c2ccc3c(N)ncnn23)[C@H](O)[C@@H]1O` [GS-646939] was tested, and the “Inhibition (fold) of subsequent nucleotide incorporation, ratio of Vmax/Km vs AMP-terminated primer” value (PIV-5 RdRp) was 4,190 fold, the “Inhibition (fold) of subsequent nucleotide incorporation, ratio of Vmax/Km vs AMP-terminated primer” value (RSV RdRp) was 1,048 fold and the “Inhibition (fold) of subsequent nucleotide incorporation, ratio of Vmax/Km vs AMP-terminated primer” value (MERS-CoV RdRp) was 17,405 fold. The “Inhibition (fold) of subsequent nucleotide incorporation, ratio of Vmax/Km vs AMP-terminated primer” value (HMPV RdRp) was 517 fold and the “Inhibition (fold) of subsequent nucleotide incorporation, ratio of Vmax/Km vs AMP-terminated primer” value (HPIV-3 RdRp) was 3,334 fold.
